This is an account of results in publication PMC5737734 (Journal of molecular biology, 2011).

This experiment concerns the target T1, DnaJ with the biotin carboxyl carrier protein (BCCP) fused at the C-terminus (E. coli, UniProt P08622 1-376).
T1 sequence (looked up): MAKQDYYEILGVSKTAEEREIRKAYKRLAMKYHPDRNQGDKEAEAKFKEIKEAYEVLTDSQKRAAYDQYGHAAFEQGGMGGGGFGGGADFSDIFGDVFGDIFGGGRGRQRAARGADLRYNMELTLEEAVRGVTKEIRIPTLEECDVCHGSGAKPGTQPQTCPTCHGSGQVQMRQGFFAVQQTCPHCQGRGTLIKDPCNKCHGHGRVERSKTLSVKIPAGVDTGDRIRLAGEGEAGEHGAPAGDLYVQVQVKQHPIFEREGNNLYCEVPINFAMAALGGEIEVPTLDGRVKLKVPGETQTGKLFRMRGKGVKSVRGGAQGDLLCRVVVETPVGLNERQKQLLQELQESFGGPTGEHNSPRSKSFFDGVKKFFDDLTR
In words: SPR. (Surface plasmon resonance follows binding to a sensor surface in real time, without labels.)

B1: DnaK L390A (natural protein)
chain: not shown
For B1, the “SPR signal relative to WT DnaK” value was approximately 10%.

B2: DnaK L391A (natural protein)
chain: not shown
Take B2: the “SPR signal relative to WT DnaK” value was approximately 10%.

B3: DnaK V389D (natural protein)
chain: not shown
Take B3: the “SPR signal relative to WT DnaK” value is approximately 10%.
